Out of some 310,000 compounds screened, about 2,200 (0.71%) showed an effect of 50% or more. Effects have a minus sign here. This is one part of the list.

The target of the test is human ether-à-go-go-related gene (hERG) potassium channel (human, UniProt Q12809). Description: primary screen, population patch clamp on CHO cells stably expressing hERG.
Sequence of human ether-à-go-go-related gene (hERG) potassium channel (Q12809 whole entry, looked up): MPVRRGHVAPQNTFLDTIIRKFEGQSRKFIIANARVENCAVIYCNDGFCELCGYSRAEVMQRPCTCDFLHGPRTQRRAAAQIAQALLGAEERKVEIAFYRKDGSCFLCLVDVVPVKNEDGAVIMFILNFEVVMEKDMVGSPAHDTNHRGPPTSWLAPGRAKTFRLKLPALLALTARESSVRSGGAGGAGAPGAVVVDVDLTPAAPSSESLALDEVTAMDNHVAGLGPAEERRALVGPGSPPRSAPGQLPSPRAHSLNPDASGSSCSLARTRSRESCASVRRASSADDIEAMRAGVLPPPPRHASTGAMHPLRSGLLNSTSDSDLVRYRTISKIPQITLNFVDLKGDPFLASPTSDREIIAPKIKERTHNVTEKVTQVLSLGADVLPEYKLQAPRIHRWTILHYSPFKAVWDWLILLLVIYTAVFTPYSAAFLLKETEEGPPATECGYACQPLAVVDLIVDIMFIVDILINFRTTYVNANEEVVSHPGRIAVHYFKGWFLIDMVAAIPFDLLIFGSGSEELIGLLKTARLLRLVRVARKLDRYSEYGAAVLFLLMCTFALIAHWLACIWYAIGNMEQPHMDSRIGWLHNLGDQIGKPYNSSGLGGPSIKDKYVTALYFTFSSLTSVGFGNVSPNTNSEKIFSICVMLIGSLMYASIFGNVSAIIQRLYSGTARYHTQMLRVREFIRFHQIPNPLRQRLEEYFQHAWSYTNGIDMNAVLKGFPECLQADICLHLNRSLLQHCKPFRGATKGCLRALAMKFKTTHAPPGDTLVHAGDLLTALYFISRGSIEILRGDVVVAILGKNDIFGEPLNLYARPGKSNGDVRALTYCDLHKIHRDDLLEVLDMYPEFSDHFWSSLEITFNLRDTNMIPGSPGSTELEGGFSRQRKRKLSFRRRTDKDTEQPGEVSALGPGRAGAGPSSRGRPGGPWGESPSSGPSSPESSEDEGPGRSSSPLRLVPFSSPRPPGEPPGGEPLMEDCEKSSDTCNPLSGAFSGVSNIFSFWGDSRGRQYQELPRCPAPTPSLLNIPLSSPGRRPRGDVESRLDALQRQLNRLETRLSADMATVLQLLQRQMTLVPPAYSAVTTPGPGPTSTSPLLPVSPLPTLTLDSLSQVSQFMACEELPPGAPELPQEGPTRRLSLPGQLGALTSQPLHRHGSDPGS
As for `Cc1cc(C)cc(N2C(=O)c3nccnc3C2=O)c1`, the “hERG current change (%, negative = inhibition) at 1uM” value is 9.67%.
The figure for `CC(C)N(C(=O)CSc1nnnn1C1CCCC1)C(C)C` is 5.61%.
The figure for `O=C(NC1CCCCC1)C1CCCN1C(=O)NCc1ccccc1` (centres unmarked) is -3.68%.
As for `CC[n+]1c(/C=C2\C=C(C)CC(C)C2)sc2ccccc21.[I-]` (centres unmarked), the “hERG current change (%, negative = inhibition) at 1uM” value is 3.17%.
The figure for `O=C(Nc1nsc(-c2ccccc2)n1)c1ccc(F)cc1` is -22%; for `Cc1ccc(S(=O)(=O)N2CCN=C2SCc2ccccc2)cc1` it is 2.54%; for `C=CCc1ccccc1OCC(O)CN1CCN(C(=O)OCC)CC1.Cl` (centres unmarked) it is 9.86%.
The figure for `Cc1cc(C(=O)CCC(=O)N(C)CC(=O)Nc2ccccc2Br)c(C)s1` is -1.36%; for `O=C(CN(Cc1ccco1)C(=O)c1ccc(N2CCCC2=O)cc1)Nc1ccccc1C(F)(F)F` it is -8.47%; for `N#CCCN(CCC#N)C(=O)c1ccc2c(c1)OCO2` it is 6.47%.
The figure for `CNC(=O)c1cc2cc(Cc3ccccc3Cl)ccc2oc1=O` is 5.24%; for `O=S(=O)(Cc1ccc(Cl)cc1)N1CCCC1` it is -2.52%; for `Cc1ccc2cccc(OCc3ccc(Br)cc3)c2n1` it is 10.2%.
Take `O=C(CS(=O)CC(=O)N(c1ccccc1)C(C(=O)NC1CCCCC1)c1ccco1)Nc1ccc(F)cc1` (centres unmarked): the “hERG current change (%, negative = inhibition) at 1uM” value turned out to be 1.93%.
For `CCCCn1c(O)c(N=NC(=O)c2ccncc2)c2cc(Br)ccc21`, the “hERG current change (%, negative = inhibition) at 1uM” value is given as -30.4%.
The figure for `Cc1csc2c(C#N)c(=O)c3c(n12)CCC3` is 12.6%.
The figure for `O=C(C1=C[C@H](c2ccc(C(F)(F)F)cc2)C[C@H](OCCCCO)O1)N1CCN(Cc2ccc3c(c2)OCO3)CC1` is -6.15%; for `Cc1cc(/C=C2\SC(=S)N(C)C2=O)c(C)n1-c1ccc(O)cc1` it is 8.49%; for `Cc1cc(C)nc(SCC(=O)Nc2nccs2)n1` it is 18.4%.
The figure for `CCOC(=O)CSC1=C(C#N)C(=O)NC2(CCCCC2)S1` is 12.2%; for `COc1ccccc1C(=O)N/C(=C/c1ccc(Br)cc1)C(=O)NCCCn1ccnc1` it is -84.8%; for `O=C(NCc1cccnc1)C1CCCN(S(=O)(=O)c2ccc(Br)cc2)C1` (centres unmarked) it is 1.65%.
With `O=C(O)C(=O)Cc1c[nH]c2ccccc12`, the “hERG current change (%, negative = inhibition) at 1uM” value stood at 14.7%.
The figure for `COc1ccccc1N1C(=O)CC1(C#N)c1ccc(OCc2ccccc2)cc1` (centres unmarked) is 9.46%; for `COc1ccc(S(=O)(=O)NCCSC(C)(C)C)c(Cl)c1Cl` it is 2.25%; for `CN(c1ccccc1)S(=O)(=O)c1cc(C(=O)OCC(=O)N2CCN(C(=O)c3ccco3)CC2)ccc1Cl` it is -2.16%.
The figure for `O=C(NCc1ccccc1Cl)C1CCN(S(=O)(=O)N2CCCCC2)CC1` is 0.769%.
The figure for `CCn1nc(C)cc1C(=O)N1CCCC(CCC(=O)NCc2ccccc2F)C1` (centres unmarked) is 7.7%.
Consider `Cc1cccc(C(=O)N(c2ccccn2)C(C)c2ccco2)c1` (centres unmarked), for which the “hERG current change (%, negative = inhibition) at 1uM” value is -0.169%.
Regarding `CCOCCOC(=O)c1ccc(NC(=O)c2cc(OC)c(OC)c(OC)c2Br)cc1`, the “hERG current change (%, negative = inhibition) at 1uM” value is given as -0.647%.
In the case of `Cn1c(COc2ccc(Cl)cc2)nnc1SCC(=O)Nc1ccc2c(c1)CCC2`, the “hERG current change (%, negative = inhibition) at 1uM” value came out at 10.8%.
The figure for `CCOC(=O)N1CCN(S(=O)(=O)c2cc(Cl)ccc2Cl)CC1` is 5.43%; for `CC(/C=N/NC(=O)c1nnn(-c2nonc2N)c1C(C)C)=C\c1ccccc1` it is 15.1%.
Regarding `CCCN1CCC(=O)N(CCSc2ccc(NC(C)=O)cc2)CC1`, the “hERG current change (%, negative = inhibition) at 1uM” value worked out at 17%.
The figure for `CC(C)C[C@H]1C(=O)N2CCC[C@H]2[C@]2(O)O[C@](NC(=O)[C@@H]3C=C4c5cccc6[nH]cc(c56)C[C@H]4N(C)C3)(C(C)C)C(=O)N12` is 8.53%.
The figure for `COc1ccc(S(=O)(=O)NCC2CCCN(Cc3ccc(O)cc3)C2)cc1` (centres unmarked) is -12.2%; for `CCc1cc2ccc(OC)cc2nc1SCC(=O)Nc1cc(C)on1` it is 2.85%.
For `CCN1C(=O)N[C@@H](CCc2ccccc2)[C@H](C(C)=O)[C@H]1C`, the “hERG current change (%, negative = inhibition) at 1uM” value amounted to 7.01%.
`COCCOC(=O)c1nccnc1C(=O)Nc1ccc(S(=O)(=O)N2CCOCC2)cc1`: the “hERG current change (%, negative = inhibition) at 1uM” value was found to be 5.8%.
For `O=C(Nc1ccc(Cl)cn1)C1CC1`, the “hERG current change (%, negative = inhibition) at 1uM” value is given as 6.41%.
As to `CCCCn1c(N)c(N(CC(C)C)C(=O)CN(C)S(=O)(=O)c2ccc(NC(C)=O)cc2)c(=O)[nH]c1=O`, the “hERG current change (%, negative = inhibition) at 1uM” value stood at 9.21%.
The figure for `COc1cc(/C=C/C(=O)OCC(=O)NC(=O)NC(C)(C)C)ccc1O` is 9.37%; for `O=C(CCNC(=O)Cn1ccc2ccccc2c1=O)NCCCN1CCN(c2ccccc2F)CC1` it is 12.1%.
The figure for `FC(F)(F)c1ccnc(NCc2ccc(Cl)cc2)n1` is 3.65%.

(Values after PMC4336329 (PLoS ONE, 2015).)
